Laboratory results reported in the supplement of paper PMC9446081.
Among all 39,000 compounds or so, about 220 (0.56%) showed activity. The list shows a part of the results.

test system: Escherichia coli K-12 BW25113; test: relative growth (OD600 normalised to plate interquartile mean) (fraction); higher = less growth inhibition, active = 0.2 or less; conditions: 50 µM; LB; incubation time: overnight (16-24 h)
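Also: static incubation at 37 °C against the wild-type strain, values averaged over two biological replicates.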

| SMILES | relative growth |
| --- | --- |
| CN1C(=O)c2cc(NC(=O)c3ccc(F)cc3)ccc2OC[C@@H]2O[C@@H](CC(=O)N3CCOCC3)CC[C@@H]21 | inactive: 0.963 |
| COCC(=O)N1C[C@@H](C)[C@H](OC)CN(C)C(=O)c2ccc(NC(=O)c3ccc(F)cc3)cc2OC[C@@H]1C | inactive: 1.01 |
| COC(=O)[C@H]1[C@H](CO)[C@H]2Cn3c(ccc(-c4ccccc4)c3=O)[C@H]2N1S(C)(=O)=O | inactive: 1.01 |
| CCCCCCCCCCCC(CC1OC(=O)C1CCCCCC)OC(=O)C(CC(C)C)NC=O (stereo not drawn) | inactive: 0.828 |
| C[C@@H]1CN([C@H](C)CO)C(=O)c2cc(NS(C)(=O)=O)ccc2O[C@@H](C)CCCCO[C@@H]1CN(C)Cc1ccc(C(F)(F)F)cc1 | inactive: 0.97 |
| CCCN(C)C[C@@H]1OCCCC[C@@H](C)Oc2ccc(NC(=O)Nc3ccc(C(F)(F)F)cc3)cc2C(=O)N([C@H](C)CO)C[C@@H]1C | inactive: 0.997 |
| CC(C)NC(=O)Nc1ccc2c(c1)C(=O)N([C@H](C)CO)C[C@H](C)[C@H](CN(C)Cc1ccccc1)OCCCC[C@@H](C)O2 | inactive: 1.01 |
| COc1ccc(CN(C)C[C@H]2Oc3ccc(NC(=O)Nc4cccc5ccccc45)cc3C(=O)N([C@@H](C)CO)C[C@@H]2C)cc1 | inactive: 1.06 |
| CC1(C)NCS[C@H]1C(=O)O | inactive: 0.949 |
| CC(C)NC(=O)N(C)C[C@@H]1Oc2cc(C#Cc3ccc(F)cc3)ccc2S(=O)(=O)N([C@H](C)CO)C[C@@H]1C | inactive: 0.992 |
| COCC#Cc1cnc2c(c1)C(=O)N([C@H](C)CO)C[C@@H](C)[C@H](CN(C)S(=O)(=O)c1ccccc1)O2 | inactive: 1.03 |
| Nc1ncnc2c1ncn2[C@@H]1O[C@H](C[C@@H](N)CC[C@H](N)C(=O)O)[C@@H](O)[C@H]1O | inactive: 1.01 |
| COc1ccc(CN(C)C[C@@H]2OCCCC[C@@H](C)Oc3ccc(NC(=O)Cc4ccccc4)cc3C(=O)N([C@H](C)CO)C[C@H]2C)cc1 | inactive: 0.998 |
| COc1ccc(C2CC(=O)c3c(O)cc(OC4OC(COC5OC(C)C(O)C(O)C5O)C(O)C(O)C4O)cc3O2)cc1O (stereo not drawn) | inactive: 1.01 |
| C[C@@H]1CCCCO[C@@H](CN(C)S(=O)(=O)c2ccc(Cl)cc2)[C@H](C)CN([C@H](C)CO)C(=O)c2cc(NC(=O)Cc3ccccc3)ccc2O1 | inactive: 1.05 |
| C[C@@H]1CN([C@@H](C)CO)C(=O)c2cc(NS(=O)(=O)c3cccs3)ccc2O[C@@H](C)CCCCO[C@H]1CN(C)C(=O)Nc1cccc2ccccc12 | inactive: 1.03 |
| O=C(C[C@@H]1CC[C@@H]2NC[C@H](O)COC[C@H]2O1)NCCN1CCCCC1 | inactive: 0.99 |
| Cc1ccc(S(=O)(=O)N(C)C[C@@H]2Oc3c(NC(=O)Nc4cccc5ccccc45)cccc3C(=O)N([C@@H](C)CO)C[C@H]2C)cc1 | inactive: 0.97 |
| C[C@@H]1CCCCO[C@H](CN(C)Cc2ccc(C(=O)Nc3ccccc3N)cc2)[C@H](C)CN([C@@H](C)CO)C(=O)c2cc(N(C)C)ccc2O1 | inactive: 0.984 |
| C[C@@H]1CN([C@@H](C)CO)C(=O)c2cc(NC(=O)Nc3ccc(C(F)(F)F)cc3)ccc2O[C@H]1CN(C)Cc1ccc(C(=O)Nc2ccccc2N)cc1 | inactive: 1.03 |

| SMILES | relative growth |
| --- | --- |
| CC(C)NC(=O)N(C)C[C@@H]1Oc2c(NC(=O)C3CCCCC3)cccc2C(=O)N([C@H](C)CO)C[C@H]1C | inactive: 0.989 |
| CCS(=O)(=O)Nc1ccc2c(c1)C(=O)N(C)[C@H]1CC[C@H](CC(=O)N[C@@H]3CCN(Cc4ccccc4)C3)O[C@@H]1CO2 | inactive: 1 |
| N=C1NCCC(C2NC(=O)C(=CNC(N)=O)NC(=O)C(CNC(=O)CC(N)CCCN)NC(=O)C(CO)NC(=O)C(N)CNC2=O)N1.O=S(=O)(O)O (stereo not drawn) | inactive: 1.04 |
| C[C@@H]1CN([C@H](C)CO)C(=O)Cc2cc(NS(=O)(=O)c3ccc(Cl)cc3)ccc2O[C@H]1CN(C)C(=O)Nc1ccc(C(F)(F)F)cc1 | inactive: 0.987 |
| COc1cc(OC)c2c(c1Cl)OC1(C2=O)C(O)=CC(=O)CC1C (stereo not drawn) | inactive: 0.925 |
| O=C1OCCC=C[C@H]2O[C@@]34C=CCN(c5ccc(Cl)cc5)C(=O)[C@H]3N(CCCCCCO)C(=O)[C@@H]4[C@@H]12 | inactive: 0.997 |
| COC(=O)C[C@H]1CC[C@@H]2[C@H](COC[C@@H](O)CN2S(=O)(=O)c2ccccc2C)O1 | inactive: 0.942 |
| C[C@@H]1CN([C@@H](C)CO)C(=O)c2cc(/C=C/c3ccccc3)cnc2O[C@H]1CN(C)C(=O)c1cnccn1 | inactive: 0.995 |
| C[C@@H]1CN([C@H](C)CO)C(=O)Cc2cc(NC(=O)c3ccncc3)ccc2O[C@H]1CN(C)C(=O)Nc1ccc2c(c1)OCO2 | inactive: 0.997 |
| COc1ccc(NC(=O)O[C@H]2[C@@H]3OC(=O)[C@H](Cc4cccc(Br)c4)C/C=C/C[C@@H](Cc4cccc(Br)c4)C(=O)O[C@H]3[C@@H](OC)O[C@@H]2CO)cc1 | inactive: 1.01 |
| CO[C@@H]1CN(C)C(=O)c2ccc(NS(=O)(=O)c3ccccc3F)cc2OC[C@@H](C)N(S(C)(=O)=O)C[C@H]1C | inactive: 0.988 |
| COc1cccc(S(=O)(=O)N2C[C@@H](O)COC[C@H]3O[C@@H](CC(=O)N4CCOCC4)CC[C@@H]32)c1 | inactive: 0.994 |
| C[C@@H]1CCCCO[C@H](CN(C)S(=O)(=O)c2ccc(Cl)cc2)[C@@H](C)CN([C@@H](C)CO)C(=O)c2cc(NC(=O)CCC(F)(F)F)ccc2O1 | inactive: 0.967 |
| COc1ccc(CN(C)C[C@@H]2OCCCC[C@H](C)Oc3ccc(NC(=O)Nc4ccc(OC)cc4)cc3C(=O)N([C@@H](C)CO)C[C@H]2C)cc1 | inactive: 0.985 |
| CC(C)CC#Cc1ccc2c(c1)O[C@H](CN(C)CC1CCOCC1)[C@@H](C)CN([C@H](C)CO)S2(=O)=O | inactive: 1.03 |
| C[C@@H]1CN([C@@H](C)CO)C(=O)c2cc(NS(=O)(=O)c3ccccc3)ccc2O[C@@H](C)CCCCO[C@@H]1CN(C)C(=O)c1ccccc1 | inactive: 0.967 |
| CCOC(=O)/C=C/C(=O)N1CCC=CC1=O | inactive: 0.951 |
| C[C@H](CO)N1C[C@H](C)[C@@H](CN(C)S(=O)(=O)c2ccccc2)Oc2ncc(-c3cccc(C(=O)N(C)C)c3)cc2C1=O | inactive: 1 |
| C[C@H](CO)N1C[C@H](C)[C@@H](CN(C)S(=O)(=O)c2ccccc2)Oc2c(NC(=O)C3CC3)cccc2C1=O | inactive: 0.97 |
| COc1ccc(C(=O)Nc2cccc(CN3C(=O)[C@@]4(O[C@@H](CC(=O)N5CCC[C@H]5CO)[C@H]([Si](C)(C)c5ccc(OC)cc5)[C@H]4C)c4ccccc43)c2)cc1 | inactive: 1 |

| SMILES | relative growth |
| --- | --- |
| N#CN=C1NC(=O)CC(=O)N1 | inactive: 1 |
| C[C@H](CO)N1C[C@H](C)[C@@H](CN(C)C(=O)Nc2ccc(C(F)(F)F)cc2)Oc2ccc(NC(=O)Cc3ccccc3)cc2CC1=O | inactive: 1.04 |
| Cc1noc(C)c1S(=O)(=O)Nc1ccc2c(c1)C(=O)N([C@H](C)CO)C[C@H](C)[C@H](CN(C)Cc1ccccc1)OCCCC[C@@H](C)O2 | inactive: 0.988 |
| C[C@H](CO)N1C[C@H](C)[C@@H](CN(C)Cc2ccc3c(c2)OCO3)OCCCC[C@H](C)Oc2ccc(NS(=O)(=O)c3ccc(F)cc3)cc2C1=O | inactive: 0.993 |
| C[C@@H]1CN([C@H](C)CO)C(=O)c2cc(NC(=O)C3CCCCC3)ccc2O[C@@H](C)CCCCO[C@H]1CN(C)S(=O)(=O)c1ccccc1 | inactive: 0.989 |
| C[C@@H]1CCCCO[C@H](CN(C)C(=O)Nc2ccccc2)[C@@H](C)CN([C@H](C)CO)C(=O)c2cc(NC(=O)Nc3ccc(F)cc3)ccc2O1 | inactive: 1 |
| Cc1[nH]c(=O)[nH]c(=O)c1CCC(=O)O | inactive: 1.01 |
| O=C(C[C@@H]1CC[C@H]2[C@@H](COC[C@H](O)CN2Cc2cc(F)ccc2F)O1)N[C@H]1CCN(Cc2ccccc2)C1 | inactive: 1.01 |
| Cn1cc(-c2nc(N[C@@H]3CCCC[C@@H]3N)c(F)c3c2C(=O)NC3)cn1 | inactive: 1.01 |
| Cn1cnc(S(=O)(=O)N2C[C@@H](O)COC[C@H]3O[C@H](CC(=O)NCc4ccc(F)cc4)CC[C@@H]32)c1 | inactive: 1.02 |
| Cc1noc(C)c1NC(=O)Nc1cccc2c1O[C@H](CN(C)S(=O)(=O)c1ccccc1)[C@@H](C)CN([C@@H](C)CO)C2=O | inactive: 0.999 |
| C[C@@H]1CN([C@H](C)CO)C(=O)c2c(c3ccccc3n2C)-c2ccccc2CO[C@@H]1CN(C)S(C)(=O)=O | inactive: 0.989 |
| C[C@@H]1CN([C@H](C)CO)C(=O)c2cc(NC(=O)CCC(F)(F)F)ccc2O[C@H]1CN(C)Cc1ccc(C(F)(F)F)cc1 | inactive: 1.04 |
| C[C@@H]1CN([C@H](C)CO)C(=O)Cc2cc(NC(=O)Cc3cn(C)c4ccccc34)ccc2O[C@@H]1CN(C)S(=O)(=O)c1cn(C)cn1 | inactive: 1.02 |
| C[C@H](CO)N1C[C@H](C)[C@H](CN(C)Cc2ccc(-c3ccccc3)cc2)Oc2ccc(NC(=O)C3CC3)cc2C1=O | inactive: 1.02 |
| COc1ccc(S(=O)(=O)Nc2ccc3c(c2)C(=O)N([C@@H](C)CO)C[C@@H](C)[C@H](CN(C)Cc2ccccc2)OCCCC[C@@H](C)O3)cc1 | inactive: 0.999 |
| CC(C)NC(=O)Nc1cccc2c1O[C@H](CN(C)S(=O)(=O)c1ccccc1)[C@H](C)CN([C@@H](C)CO)C2=O | inactive: 0.986 |
| O=C(C[C@H]1C[C@@H]2c3cc(NS(=O)(=O)c4ccc(F)cc4)ccc3O[C@@H]2[C@H](CO)O1)N1CCOCC1 | inactive: 1.03 |
